# Screen size: about 310,000 compounds; about 2,200 (0.71%) showed an effect of 50% or more. Effects have a minus sign here. Some of the results follow.
# Target: human ether-à-go-go-related gene (hERG) potassium channel (human, UniProt Q12809)
# Experiment: primary screen, population patch clamp on CHO cells stably expressing hERG
# Chain of human ether-à-go-go-related gene (hERG) potassium channel (Q12809 whole entry, looked up): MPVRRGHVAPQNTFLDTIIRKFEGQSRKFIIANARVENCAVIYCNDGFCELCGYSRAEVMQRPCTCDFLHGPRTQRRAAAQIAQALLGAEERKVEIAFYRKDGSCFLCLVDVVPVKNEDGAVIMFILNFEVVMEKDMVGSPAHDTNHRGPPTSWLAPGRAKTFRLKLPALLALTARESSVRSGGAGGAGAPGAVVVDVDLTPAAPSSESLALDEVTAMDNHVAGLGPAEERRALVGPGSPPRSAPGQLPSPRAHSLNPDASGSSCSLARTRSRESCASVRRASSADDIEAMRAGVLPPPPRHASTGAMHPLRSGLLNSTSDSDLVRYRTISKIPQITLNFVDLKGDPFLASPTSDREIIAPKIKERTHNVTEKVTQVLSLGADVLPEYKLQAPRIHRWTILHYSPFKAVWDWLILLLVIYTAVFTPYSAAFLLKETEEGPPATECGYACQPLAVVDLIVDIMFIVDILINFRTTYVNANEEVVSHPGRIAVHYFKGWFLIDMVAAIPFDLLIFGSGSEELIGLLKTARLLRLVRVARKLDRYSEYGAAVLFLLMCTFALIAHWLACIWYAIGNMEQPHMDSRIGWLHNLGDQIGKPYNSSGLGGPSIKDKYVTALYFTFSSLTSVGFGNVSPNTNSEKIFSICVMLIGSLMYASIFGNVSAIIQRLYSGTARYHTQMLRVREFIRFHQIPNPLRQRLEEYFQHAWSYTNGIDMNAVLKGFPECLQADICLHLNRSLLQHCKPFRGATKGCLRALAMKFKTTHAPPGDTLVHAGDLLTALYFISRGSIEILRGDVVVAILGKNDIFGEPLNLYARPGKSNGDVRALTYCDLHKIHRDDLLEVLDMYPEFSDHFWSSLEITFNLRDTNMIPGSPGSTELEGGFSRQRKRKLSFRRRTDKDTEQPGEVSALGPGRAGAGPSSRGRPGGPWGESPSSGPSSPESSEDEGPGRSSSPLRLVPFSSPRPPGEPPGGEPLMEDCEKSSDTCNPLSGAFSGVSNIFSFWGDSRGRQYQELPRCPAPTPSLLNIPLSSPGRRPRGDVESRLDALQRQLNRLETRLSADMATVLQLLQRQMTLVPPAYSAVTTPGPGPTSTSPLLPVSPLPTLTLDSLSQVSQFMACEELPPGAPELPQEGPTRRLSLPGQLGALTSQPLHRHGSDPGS
row,Compound,"hERG current change (%, negative = inhibition) at 1uM [%]"
1,Cc1nn(CC(=O)Nc2ccc3c(c2)oc2ccccc23)c(=O)c2ccccc12,11.6
2,CSc1nc(O)c(Cc2ccccc2)c(=O)[nH]1,10.8
3,Cc1ccc(C)c(S(=O)(=O)N2CCN(C(C)C(=O)Nc3ccccc3-c3ccccc3)CC2)c1 (centres unmarked),3.23
4,Cc1nc(NC(=S)NC(=O)COc2ccccc2Cl)ccc1Br,3
5,O=C(NCCCCc1ccccc1)C12CN(Cc3ccccc3)CC1C(c1ccc([N+](=O)[O-])cc1)=NO2 (centres unmarked),14.9
6,COc1cc(-n2c(C)nc3cc(C(=O)NCc4ccco4)ccc32)cc(OC)c1OC,4.74
7,COc1cc(C)nc(NS(=O)(=O)c2ccccc2)n1,12.9
8,CC(=O)N1CCC(Nc2ccc(C)cc2)CC1,11.2
9,CCCCCCC1C(C#N)=C(N)OC2=C1C(=O)CC(C)(C)C2 (centres unmarked),9.9
10,C=CCOc1ccc(C2NC(=O)c3ccccc3O2)cc1 (centres unmarked),10.5
11,CC12CCC(C(=O)NNc3ccccc3)(C(=O)C1=O)C2(C)C (centres unmarked),16.6
12,O=S(=O)(NCC1CCCN(Cc2ccccc2)C1)c1cccc2cccnc12 (centres unmarked),4.57
13,O=C(CSc1nc2ccccc2c(=O)n1-c1ccccc1Cl)NCC1CCCO1 (centres unmarked),7.02
14,CCOc1ccccc1NC(=O)Cn1c(C)cc(COC)c(C#N)c1=O,14.8
15,C[n+]1c2n(c3ccccc31)N=C(c1ccc(Cl)cc1)CS2.[Br-],-51.9
16,C=CCn1c(C)cc(C(=O)COC(=O)c2ccc3c(c2)NC(=O)CS3)c1C,7.16
17,CC1CN(C)C(c2ccccc2)C(C)C12NC(=O)NC2=O (centres unmarked),11.4
18,Cc1nc2ccc(S(=O)(=O)NC(C(=O)NCc3cccs3)C(C)C)cc2s1 (centres unmarked),11.4
19,O=S1(=O)[C@H]2C[C@@H]3C=C[C@@]2(CN1Cc1cccc(F)c1)O3,11.9

row,Compound,"hERG current change (%, negative = inhibition) at 1uM [%]"
1,CC1CC1C(=O)OCC(=O)Nc1cccc([N+](=O)[O-])c1 (centres unmarked),8.69
2,COc1ccc(Nc2nccc(-c3ccc([N+](=O)[O-])cc3)n2)cc1,15.8
3,CCOC(=O)c1c(C)n(C)c2ccc(O)c(CN3CCCCC3)c12,-6.48
4,Cc1ccc(S(=O)(=O)Nc2ccc(C(=O)NCc3ccncc3)cc2)cc1,9.82
5,Cc1ccc2oc(C(=O)N3CCC(O)(c4cccc(C(F)(F)F)c4)CC3)c(C)c2c1,10.7
6,Cn1c(C(=O)O)ccc1S(=O)(=O)N(Cc1ccccc1)Cc1ccccc1,11.2
7,Cc1noc(C)c1CSc1nc2ccccc2nc1NS(=O)(=O)c1ccc(Cl)cc1,10.4
8,COc1ccc(C(=O)CSc2nnc3n2CCCN3C(=O)Nc2ccccc2)cc1,11.4
9,N#CCC(=O)N/N=C/c1ccc(OCC(=O)Nc2ccc(F)cc2)cc1,8.06
10,NC(=O)CC(NC(=O)c1cccc(Br)c1)c1ccc(N2CCC(N3CCCC3)CC2)c([N+](=O)[O-])c1 (centres unmarked),5.16
11,O=C(c1ccco1)N1CCN(C(=O)c2cc(-c3ccccn3)nc3ccccc23)CC1,-11.2
12,Cc1ccccc1N(CC(=O)N1CCN(c2ccccc2)CC1)S(C)(=O)=O,2.16
13,Cn1c(CN2CCCCC2)c(C#N)c2ccccc21,1.87
14,CN=C(Nc1ccccc1)SC1CC(=O)N(c2ccc(C(=O)OC)cc2)C1=O (centres unmarked),11.3
15,Cc1nn(Cc2ccccc2)c(C)c1NC(=O)c1noc2c1CCc1ccccc1-2,2.04
16,CCCNC(=O)COc1cccc(C(=O)NCc2ccccc2)c1,6.04
17,CC(C)c1ccc(NC(=O)CSc2nc3ncccc3[nH]2)cc1,12
18,COC(=O)[C@H](C)NC(=O)NCc1ccccc1,4.6
19,Cc1ccccc1NC1=NCC(C)S1 (centres unmarked),1.59

row,Compound,"hERG current change (%, negative = inhibition) at 1uM [%]"
1,C=CCOC(=O)C1=C(C)OC(N)=C(C(=O)OCC)C12C(=O)N(CC(N)=O)c1ccccc12 (centres unmarked),0.391
2,C=CCN1C(=O)/C(=C2/Sc3ccc(OC)cc3N2C)SC1=Nc1ccc(OC)cc1,10.5
3,O=C(NCCCN1CCOCC1)c1cc(-c2ccc(F)cc2)on1,-8.44
4,Cc1onc(-c2ccccc2Cl)c1C(=O)Nc1ccc(CN2CCCC2)cc1,10.8
5,CCOC(=O)C1(C)C=C(Nc2ccc(OCC)cc2)C(=O)N1c1ccccc1 (centres unmarked),16.7
6,CN1CC=C2C(C#N)=C(N)C(C#N)(C#N)C(Cc3ccccc3)C2C1 (centres unmarked),6.55
7,CC(NS(=O)(=O)c1ccc(CCC(=O)NCc2cccnc2)cc1)c1ccccc1 (centres unmarked),8.24
8,Nc1ccc2cc(Br)ccc2c1,4.09
9,COc1ccc(C(=O)Nc2ccccc2C(=O)NCc2ccco2)cc1OC,17.4
10,O=C(Cc1ccccc1[N+](=O)[O-])NCc1ccco1,11.7
11,Cc1ccc(S(=O)(=O)N2CCN(C(=O)N3CCCC3)CC2)cc1,14.5
12,COc1ccc(S(=O)(=O)N(C)CC(=O)Nc2cccc(C(C)=O)c2)cc1C,-7.17
13,Cc1cc(=O)[nH]c(=O)n1Cc1ccccc1,8.55
14,COc1ccc(N2C(=O)CC(Sc3n[nH]c(-c4ccc(C)cc4)n3)C2=O)cc1 (centres unmarked),-1.35
15,CC1CCC(C(C)C)C(OC(=O)Cn2c(-c3ccc(Cl)cc3)[n+](C)c3ccccc32)C1.[Cl-] (centres unmarked),-58
16,O=C1NC(=S)N(c2ccc(F)cc2)C(=O)/C1=C/c1ccccc1O,8.73
17,Cc1ccc(/C=N/n2c(-c3ccco3)n[nH]c2=S)s1,12.5
18,COc1ccc(C(c2c(O)c3ccccc3oc2=O)c2c(C)n(C)n(-c3ccccc3)c2=O)cc1 (centres unmarked),8.94
